Whole data set: some 33,000 sequences, median “E-score (-0.5 to 0.5)” near -0.012, cut for the highest 2% near 0.27. Some of the results follow.
What follows are sequences tested against T1, Vhr1 (UniProt P40522) (assay: PBM E-score (8-mer binding enrichment) (E-score (-0.5 to 0.5)); higher = stronger / more preferred TF binding; most listed sequences are background and not binding sites). Settings: protein concentration: 200 nM; construct: GST-full length.
T1 sequence: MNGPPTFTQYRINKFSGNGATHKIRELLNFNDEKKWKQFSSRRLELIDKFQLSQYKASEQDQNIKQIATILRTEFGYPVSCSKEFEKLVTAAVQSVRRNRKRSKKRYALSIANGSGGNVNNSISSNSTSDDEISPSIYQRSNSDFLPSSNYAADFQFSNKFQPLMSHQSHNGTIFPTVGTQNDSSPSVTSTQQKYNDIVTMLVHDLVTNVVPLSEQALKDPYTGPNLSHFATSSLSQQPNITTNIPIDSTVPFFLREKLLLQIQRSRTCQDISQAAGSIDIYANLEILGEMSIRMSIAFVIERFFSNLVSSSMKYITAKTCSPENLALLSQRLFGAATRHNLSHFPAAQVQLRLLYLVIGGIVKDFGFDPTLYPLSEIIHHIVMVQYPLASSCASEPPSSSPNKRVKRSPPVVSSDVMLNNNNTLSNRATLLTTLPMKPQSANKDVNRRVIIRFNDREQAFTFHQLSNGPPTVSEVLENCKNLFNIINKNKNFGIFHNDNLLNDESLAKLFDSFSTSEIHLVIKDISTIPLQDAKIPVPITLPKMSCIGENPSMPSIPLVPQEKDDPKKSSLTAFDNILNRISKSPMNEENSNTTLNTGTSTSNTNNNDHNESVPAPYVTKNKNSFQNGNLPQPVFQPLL
Experimental: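 Universal 'all 10-mer' protein binding microarrays (Agilent AMADID 015681) probed with GST-tagged S. cerevisiae TFs (full-length or DBD) made by in vitro transcription/translation (PURExpress), about 100-200 nM. Bound TF was detected with fluorescent anti-GST. Each ungapped 8-mer (which stands for itself and its reverse complement) is scored by the PBM enrichment score (E-score), a modified Wilcoxon-Mann-Whitney statistic from -0.5 to +0.5, computed with the Universal PBM Analysis Suite. Scale: above 0.35 generally sequence-specific binding.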

Row | Sequence | PBM E-score
1 | AATTACGT | -0.106
2 | ATGTGATA | 0.0863
3 | ATCCCCCA | -0.291
4 | ACATATGG | 0.201
5 | GGCGCAGA | 0.104
6 | CTACAACC | 0.00353
7 | ACGGTAGC | 0.0102
8 | CTCGCTTC | -0.169
9 | CACAATAG | 0.0593
10 | TAGCATAA | -0.185
11 | GGCCGGAA | 0.0659
12 | AACGTCGA | 0.0261
13 | CAAACGTG | -0.0382
14 | CTAACAAG | -0.164
15 | ACGTTCCT | -0.0273
16 | GGAATACA | 0.0161
17 | ACCAAGAG | 0.0991
18 | CGGCGCCC | -0.127
19 | GAGCTCAA | -0.11
20 | ATCGGGGA | 0.0201
21 | AGCGGATA | 0.0445
22 | CGGCTCTC | 0.0088
23 | AGAGTGAA | -0.0205
24 | ACGACCAC | 0.0873
25 | AGAGGCGC | -0.303

Row | Sequence | PBM E-score
26 | GGCTAGAA | -0.0859
27 | ACGCCCCT | -0.128
28 | CCCCACAA | 0.0884
29 | ACATTACG | -0.00945
30 | ATGCTTGC | -0.0711
31 | CGAAGCTA | -0.171
32 | GCAACAAA | -0.0285
33 | CCGACAGA | 0.215
34 | CGCCTCTA | -0.158
35 | CTTTGGGA | -0.185
36 | CTGTACAG | -0.0141
37 | AGGATCCT | -0.0216
38 | ATCACCCC | 0.199
39 | AACTTATC | -0.102
40 | GCGCGTCC | -0.0575
41 | AGCCCAGA | 0.0242
42 | CCTAGCCG | -0.175
43 | CTAAAAAC | -0.227
44 | AAGGGGCG | -0.0512
45 | AAGACCAA | -0.0213
46 | GCGCTTCA | -0.0639
47 | GAGACTGC | 0.0756
48 | AAACTATG | 0.0489
49 | ACGTTAAA | -0.236
50 | CCCTGCGC | -0.119

Row | Sequence | PBM E-score
51 | TCGTGTCA | 0.0355
52 | ACTGATTA | 0.147
53 | CGTTAAAG | -0.137
54 | CGTGCTTC | 0.0894
55 | CCACGTAG | -0.213
56 | AAACCGAT | -0.00695
57 | CAGCGGCC | 0.107
58 | ATGTGGTG | 0.227
59 | CGTTATAG | -0.103
60 | GCGGCTCA | 0.206
61 | CATTTCTC | -0.0286
62 | TGAGAAAA | -0.106
63 | GCACTGCC | -0.039
64 | AACCCCCA | -0.225
65 | GAGGTTCA | -0.106
66 | ACAACAGA | -0.122
67 | CGTACTTC | 0.0221
68 | ATAGGCAG | 0.0923
69 | ACATATCG | 0.191
70 | TACCCGAA | -0.0342
71 | CGCACCTA | -0.0281
72 | GAAGTAAA | -0.184
73 | CTAGGCGC | -0.0163
74 | AGTGAGAC | 0.0195
75 | TCATGGGA | 0.155

Row | Sequence | PBM E-score
76 | CGCCAATA | -0.0478
77 | ACTTACCT | -0.0556
78 | CGACGGCG | 0.146
79 | AATGCCTA | -0.281
80 | CACTCCAG | 0.0538
81 | ACAGCAGC | 0.185
82 | CAGCTGAG | 0.00591
83 | CTATACCA | 0.0306
84 | CGAGTCAG | 0.429
85 | AGTAGTAT | 0.23
86 | GGACGTAC | -0.124
87 | AACTTGAT | 0.124
88 | GACCATGA | 0.196
89 | CTAGTCGA | 0.0492
90 | ACCAGACA | -0.0188
91 | AAAAAGTC | -0.0407
92 | AACGACAT | 0.0855
93 | CAACGAGC | 0.0212
94 | GTCCAAAA | -0.125
95 | AATCGTGC | 0.07
96 | CTTTCAGA | 0.0207
97 | AAGGCTGC | -0.0963
98 | TGCAGACA | -0.00645
99 | TGAATCCA | 0.185
100 | CTGAACCA | 0.245

Row | Sequence | PBM E-score
101 | CTCCCCCA | -0.127
102 | CCAGGGGC | -0.0839
103 | CTCACCTC | 0.127
104 | GATGACAA | -0.00976
105 | AGGCGCTC | -0.0954
106 | GGCCTCAC | -0.0776
107 | AAACTGTG | 0.0924
108 | ATCTGCTG | -0.0283
109 | ATATGCGA | 0.0841
110 | GCGAACAC | -0.0481
111 | TAACTCAA | 0.108
112 | CCTTGCAG | -0.139
113 | ACGGAGGA | -0.115
114 | CCACATTA | 0.126
115 | CGCGAGTA | 0.112
116 | AACGACGG | 0.0615
117 | CCTCGGGC | 0.0668
118 | CATTGTGA | 0.177
119 | ACCCGGTA | 0.0969
120 | TGCTTGAA | 0.0354
121 | GAACGCCA | -0.0323
122 | GAGGTTCC | 0.0147
123 | CCTCTTGC | -0.118
124 | CTGAGGTC | -0.0896
125 | CAAGTGAC | -0.00136

Row | Sequence | PBM E-score
126 | CTGGGTTA | 0.225
127 | ACTGACTC | 0.421
128 | GATCCATA | 0.21
129 | ATAAGAAT | 0.00682
130 | ATACGACA | 0.168
131 | ACATTACA | 0.128
132 | ACCAGTAA | 0.107
133 | AAAGGCCA | -0.0706
134 | AGCAACGC | -0.117
135 | CATAGAGC | -0.0922
136 | AATGCACC | -0.0135
137 | CTGGAAGC | -0.235
138 | AAAGCTAT | -0.0772
139 | AATTAACC | 0.117
140 | AGGGTGTG | 0.0995
141 | GAGTCGGC | 0.411
142 | CGTCAGAA | -0.284
143 | CTCTTTCA | -0.147
144 | ACCTTCGT | -0.216
145 | AGTGGCGC | 0.139
146 | GCGTACCA | -0.0231
147 | GGCAGACC | -0.198
148 | ACGTTAGT | -0.048
149 | CCCCTTCA | -0.262
150 | TCAGCACA | 0.109

Row | Sequence | PBM E-score
151 | ACGGATGA | 0.141
152 | ATCCAGAT | 0.1
153 | GTTCGGAA | -0.0839
154 | GGCTAGGA | -0.113
155 | AATCCGCC | -0.0623
156 | AAATGCTT | -0.229
157 | CCGATCGG | 0.0208
158 | CTCCATGC | 0.0806
159 | ACCAACAG | 0.046
160 | ACCCCGCC | 0.199
161 | CCCGCCCA | 0.301
162 | CAATCTGA | 0.00363
163 | CAGCTCAC | -0.117
164 | CTTTGTCC | -0.111
165 | ACTAGCCT | 0.00039
166 | ACCAGGAA | -0.173
167 | ACACCCCT | 0.0117
168 | AACCTGGT | 0.199
169 | ATCGTTTC | -0.0595
170 | GCAAAGCC | -0.289
171 | AAAACTAG | -0.0558
172 | CCAGAACA | 0.0736
173 | CGGTCTAA | -0.209
174 | CGGGCGTA | -0.126
175 | TCTTGACA | 0.0152

Row | Sequence | PBM E-score
176 | ACTAAGTG | 0.118
177 | GAGGAGCA | -0.072
178 | GAAGTATA | 0.0746
179 | GAGCATGA | 0.0876
180 | CCTGCACC | -0.175
181 | CATTATCC | 0.193
182 | CACGGTAC | 0.129
183 | GCGTTCTA | -0.129
184 | AAAGATGG | -0.242
185 | CACAACTG | 0.0157
186 | GGCAGCAC | -0.0212
187 | CTTGGAAC | -0.0826
188 | CAGATCCG | 0.0371
189 | AAATAGCC | -0.0966
190 | GTTCTGAA | -0.0921
191 | CGGAGCGC | 0.0627
192 | TAGGCTCA | -0.146
193 | CAGCACCA | -0.0244
194 | GGTCCGGA | 0.142
195 | CGATGTTC | 0.142
196 | CTATACAA | 0.0774
197 | TAATAATA | 0.0976
198 | ATTGGTGC | 0.135
199 | GCGGCGCA | 0.0393
200 | GAACAAGA | -0.0334

Row | Sequence | PBM E-score
201 | ACTCGTCA | 0.0193
202 | CTTAGGGA | -0.253
203 | AAGTTAGG | -0.095
204 | AGTGTCAG | 0.0138
205 | ACTCCATC | 0.213
206 | GGACCCTA | -0.263
207 | GCTGCGGA | -0.00642
208 | GTGTATCA | 0.275
209 | CAGCACAC | 0.0182
210 | ACAACAAG | 0.0895
211 | ACGTGCAT | -0.129
212 | CTAGCACA | -0.107
213 | TTCGACAA | -0.0885
214 | ACTTCCCC | -0.157
215 | CCCCAACG | -0.156
216 | CGAGTAAC | 0.139
217 | CACAGCGC | 0.185
218 | GTCCTAAC | -0.0108
219 | CAATCGTA | -0.029

— the supplement of paper PMC3334620
